Source: the RNAGym collection of RNA variant scans (doi:10.1093/nar/gkz1192)
Read counts are not given, so values of variants with three or more changes are uncertain.

B1: CPEB3 Ribozyme (parent)
chain: UAACAGGGGGCCACAGCAGAAGCGUUCACGUCGCAGCCCCUGUCAGAUUCUGGUGAAUCUGCGAAUUCUGCUGUAUAUCUC

Variants of: B1
Assay: self-cleavage, relative activity (ratio to wild type); higher = more cleavage; in vitro, sequencing
How it was run: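 Relative activity was defined as the cleaved/total read fraction for a variant divided by the same fraction for the unmutated ribozyme. CPEB3 self-cleaving ribozyme libraries were made by rounds of error-prone PCR, barcoded, and transcribed in vitro with T7 RNA polymerase for 5 hours at 37°C, and cleavage ran through transcription plus a 15 min DNase I step before EDTA. Illumina sequencing of template-switched reverse transcripts gave the reads, and DNA sequencing mapped the barcodes. Averages come from three batches, using variants with at least 5 reads.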

Row | Variant | self-cleavage
1 | A13G A47U A64G | 0.15
2 | A13G C23U C34U | 0.17
3 | A13G A56C A64G | 0.24
4 | C12U A28G C32U U49C A77G | 0.04
5 | A13G A15G C50G U51C | 0.21
6 | A13G A21G A28G A65U G70A | 0.16
7 | C12U A13U A28U U58C A77U | 0.49
8 | A13G A35G G46A | 0.44
9 | A13G A21G U51A | 0.55
10 | A13C A45U A56U U60C | 0.06
11 | C12U A18G U67A C71A A75G | 0.17
12 | A13G G16A A57G A77G | 0.13
13 | A13G A15G U25C U51C U78A | 0.02
14 | A13C U25C A64G U76C | 0.09
15 | A13G A45G G52U A57G U60A | 0.26
16 | A13G A20G U49C U78C | 0.51
17 | A13G C17G A28G U31G A65G | 0.05
18 | A13G C27U U41G U54C U72A U78C U80C | 0.06
19 | C12A U25C U26C U31A U43A | 0.11
20 | A13G A18G U49C U72C | 0.09
21 | A13C G24A U26A A56G U66C | 0.07

Row | Variant | self-cleavage
22 | C12U A15G U43A U69A | 0.2
23 | A13C A20C U31A | 0.12
24 | C12A U25A A45U A47G C62U | 0.23
25 | A13G A15U A28G | 0.17
26 | A13G A57G U67C U76C | 0.33
27 | C12U A15G U48C U58C U72G | 0.14
28 | A13G C29U G52U G73A U78C | 0.77
29 | C12G A15C G24U U25C U31C A56G U80A | 0.04
30 | A13G A20G A21G G22A C37A U41A A77C | 0.04
31 | C12U A15U U43A U51C U60A U72C | 0.21
32 | A13G C27G C68G A75G U78C | 0.1
33 | A13C U60C U66C U67G U72C | 0.07
34 | C12G A13U U25C C40A | 0.05
35 | A13G A64U U69A | 0.15
36 | A13G A18G U31A U72G | 0.32
37 | A13G A15G C37A U41C A47G U54C | 0.04
38 | A13C U31C A47G U54C U60C A65G U72A | 0
39 | A13C A15G A45U A56U | 0.19
40 | A13G A64U U72A U76C | 0.13
41 | A13G G16A G55C U72A | 0.08
42 | A13G A20G A28G C37A U60C | 0.18

Row | Variant | self-cleavage
43 | C12U A18C U51C U60A | 0.27
44 | A13G A28G U43C U60C A65G | 0
45 | A13G A57C A65U | 0.45
46 | C12U G19U U60A | 0.12
47 | A13C A28G U60C A64G C68A | 0.23
48 | C12A U31C C38A U72C U80C | 0.24
49 | A13G C62U U80C | 0.55
50 | A13G C32U U48A U78C | 0.06
51 | A13G A18U U69C U74C | 0.22
52 | A13G A15U A47G U60A | 0.09
53 | A13G A28G A57G U69A G70A | 0.19
54 | A13G A15G G30A U41A A56G | 0.45
55 | A13G A20U C68A | 0.18
56 | A13G A28G A45U U51A | 0.43
57 | A13C G36A U43C A45U U66C U69A U80A | 0.12
58 | A13G A15G A28C | 0.36
59 | C12U A13G U25C A28G U76A | 0.06
60 | A13C U26C A28G U43A U48C U54A | 0.1
61 | C12U U31G U66A U80G | 0.4
62 | C12G U26C U31A A35U U69C U72A U80C | 0.03
63 | A13G A21C U31G A35U | 0.53

Row | Variant | self-cleavage
64 | A13G A15C G22A | 0.47
65 | A13G A45G U76A | 0.74
66 | C12U U43C A56G | 0.54
67 | C12U C38U U72C | 1.3
68 | A13G C29U U51C U54C A65U | 0.1
69 | C12A A45G U78C | 0.83
70 | C12U A15C A65G | 0.6
71 | A13G A21U U51C G53A U80C | 0.35
72 | C12U C14U A18G A47G G53A A75G | 1.18
73 | C12U A35G U41A U66C U72C | 0.12
74 | C12G A13G C17G | 0.31
75 | C12U A13G A20U A28U U31C U43G U60C | 0.05
76 | A13C A15C A28G U31C A64U U74C | 0.06
77 | C12U U41C U66G U78A | 1.13
78 | C12A U41A U67C | 0.09
79 | A13G A45C C71G | 0.32
80 | A13G A28G C39U U54C A77G | 0.31
81 | C12U A13U A15U C29U U74A | 0.69
82 | A13G C23G A28G U43C U69A U76C | 0.03
83 | C12U A13U C40U U60C | 0.23
